Results on 37 sequences are retold here after paper PMC5892938.

The other results are listed elsewhere or left out. At the low end of the ranking the order means little.

The test has as its target GST-SBP-SLBP (stem-loop binding protein) (UniProt Q14493). The test can be described thus: targeted RNA Bind-n-Seq.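 Also: DESeq read counts versus GST-SBP nonspecific binding control pulldown.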 As to conditions: RBNS binding buffer: 25 mM Tris pH 7.5, 150 mM KCl, 3 mM MgCl2, 0.1% Tween, 0.5 mg/mL BSA, 1 mM DTT; 27 nM protein, 750 pM RNA pool; temperature not stated; high values mean tight binding.
With “GGUCACGUCUCAAUCAACUCAUCUUCCAGGGAAAGCCCUGGUAAUUUCAACAGCUCGCAGUCAAG”, the binding signal (log2 fold change) is 0.0982.
Take “GGUCACGUCUCAAUCAACUCAUUCUCCAGGGAAACCCCUGGUAUACUCAACAGCUCGCAGUCAAG”: the binding signal (log2 fold change) was 0.118.
Take “GGUCACGUCUCAAUCAACUCCUAAGAGGGGGGGAAAACCCCUUUACCCUCACAUUCAACAGCUCGCAGUCAAG”: the binding signal (log2 fold change) is -0.497.
Consider “GGUCACGUCUCAAUCAACUCAUCCUCAGGAGUUUACUCCUGCAUUUUCAACAGCUCGCAGUCAAG”, for which the binding signal (log2 fold change) was -0.104.
“GGUCACGUCUCAAUCAACUCUUUUUCCAGGGAAAUCCCUGGCAUUCUCAACAGCUCGCAGUCAAG”: the binding signal (log2 fold change) was -0.0501.
Take “GGUCACGUCUCAAUCAACUCCAAAGAGGGGGGGAAAACCCCUUUACCCUCCCAAUCAACAGCUCGCAGUCAAG”: the binding signal (log2 fold change) was 0.197.
As for “GGUCACGUCUCAAUCAACUCAUUCCCAGGAGUUUCCUCCUGUUUAUUCAACAGCUCGCAGUCAAG”, the binding signal (log2 fold change) is -0.0185.
As for “GGUCACGUCUCAAUCAACUCAUCCUCCAGGGAAAUCCCUGGCAAAUUCAACAGCUCGCAGUCAAG”, the figure is 0.239; as for “GGUCACGUCUCAAUCAACUCAUUUUCCAGGGAAAACCCUGGCAAUCUCAACAGCUCGCAGUCAAG”, -0.019; as for “GGUCACGUCUCAAUCAACUCUAUUCCCAGGGAAACCCCUGGCUAACUCAACAGCUCGCAGUCAAG”, -0.145.
Turning to “GGUCACGUCUCAAUCAACUCAUUCGAGGGGGGGAAAACCCCUUUACCCUCCAUAUCAACAGCUCGCAGUCAAG”, the binding signal (log2 fold change) was 0.121.
Consider “GGUCACGUCUCAAUCAACUCAGAAGAGGGGGGGAAAACCCCUUUGCCCUCAACAUCAACAGCUCGCAGUCAAG”, for which the binding signal (log2 fold change) was -0.133.
In the case of “GGUCACGUCUCAAUCAACUCUAUCCCAGGAGUUUCCUCCUGCAUACUCAACAGCUCGCAGUCAAG” it was 0.312.
Regarding “GGUCACGUCUCAAUCAACUCUUUCCCCAGGGAAAACCCUGGCUUACUCAACAGCUCGCAGUCAAG”, the binding signal (log2 fold change) was 0.0645.
On to “GGUCACGUCUCAAUCAACUCUCACGAGGGGGGGAAAACCCCUUUGCCCUCACAUUCAACAGCUCGCAGUCAAG”, for which the binding signal (log2 fold change) is 0.0625.
In the case of “GGUCACGUCUCAAUCAACUCAUUUCCCAGGGAAACCCCUGGCUUACUCAACAGCUCGCAGUCAAG” it was 0.121; in that of “GGUCACGUCUCAAUCAACUCUUCCUCAGGAGUUUUCUCCUGUAAUUUCAACAGCUCGCAGUCAAG”, -0.0363; in that of “GGUCACGUCUCAAUCAACUCUUUUCCAGGAGUUUCCUCCUGUUAUUUCAACAGCUCGCAGUCAAG”, -0.0622.
For “GGUCACGUCUCAAUCAACUCAUCUCCAGGAGUUUACUCCUGCUUUUUCAACAGCUCGCAGUCAAG”, the binding signal (log2 fold change) is -0.0208.
In the case of “GGUCACGUCUCAAUCAACUCUAUUCCCAGGGAAAACCCUGGCAUAUUCAACAGCUCGCAGUCAAG” it was 0.0822; in that of “GGUCACGUCUCAAUCAACUCUUUCGAGGGGGGGAAAACCCCUUUGCCCUCACAAUCAACAGCUCGCAGUCAAG”, 0.167.
On to “GGUCACGUCUCAAUCAACUCAUCUUCCAGGGAAAGCCCUGGCUUACUCAACAGCUCGCAGUCAAG”, for which the binding signal (log2 fold change) was -0.304.
On to “GGUCACGUCUCAAUCAACUCUACUUCAGGAGUUUUCUCCUGCUUUCUCAACAGCUCGCAGUCAAG”, for which the binding signal (log2 fold change) turned out to be 0.0407.
In the case of “GGUCACGUCUCAAUCAACUCCAAAGAGGGGGGGAAAACCCCUUUACCCUCAUCUUCAACAGCUCGCAGUCAAG” it was 0.443; in that of “GGUCACGUCUCAAUCAACUCGCAAGAGGGGGGGAAAACCCCUUUACCCUCACAUUCAACAGCUCGCAGUCAAG”, 0.184.
In the case of “GGUCACGUCUCAAUCAACUCAAGGUCAGGAGUUUCCUCCUGUUAAUUCAACAGCUCGCAGUCAAG” it was -0.037.
With “GGUCACGUCUCAAUCAACUCAAUAGAGGGGGGGAAAACCCCUUUGCCCUCGUAAUCAACAGCUCGCAGUCAAG”, the binding signal (log2 fold change) came out at 0.156.
On to “GGUCACGUCUCAAUCAACUCAGUUCCAGGAGUUUACUCCUGCUAAUUCAACAGCUCGCAGUCAAG”, for which the binding signal (log2 fold change) is -0.319.
Take “GGUCACGUCUCAAUCAACUCAUCCCCAGGAGUUUUCUCCUGUUUUCUCAACAGCUCGCAGUCAAG”: the binding signal (log2 fold change) was -0.0205.
On to “GGUCACGUCUCAAUCAACUCAUCUUCAGGAGUUUCCUCCUGCAAACUCAACAGCUCGCAGUCAAG”, for which the binding signal (log2 fold change) is -0.00471.
Take “GGUCACGUCUCAAUCAACUCUUUUCCAGGAGUUUACUCCUGCAUAUUCAACAGCUCGCAGUCAAG”: the binding signal (log2 fold change) was -0.17.
For the sequence “GGUCACGUCUCAAUCAACUCUACUCCCAGGGAAAUCCCUGGUAAUUUCAACAGCUCGCAGUCAAG”, the binding signal (log2 fold change) is 0.0619.
In the case of “GGUCACGUCUCAAUCAACUCCUUCGAGGGGGGGAAAACCCCUUUACCCUCACAAUCAACAGCUCGCAGUCAAG” it was 0.304; in that of “GGUCACGUCUCAAUCAACUCUUCCCCCAGGGAAAACCCUGGCUUUUUCAACAGCUCGCAGUCAAG”, -0.00642; in that of “GGUCACGUCUCAAUCAACUCUAUUUCAGGAGUUUCCUCCUGCUAAUUCAACAGCUCGCAGUCAAG”, -0.1.
As for “GGUCACGUCUCAAUCAACUCUUUCUCAGGAGUUUUCUCCUGCUUUGUCAACAGCUCGCAGUCAAG”, the figure is 4.48e-05; as for “GGUCACGUCUCAAUCAACUCCAUCGAGGGGGGGAAAACCCCUUUACCCUCACCAUCAACAGCUCGCAGUCAAG”, -0.222.
